# According to the supplement of paper PMC6135742:
# Values joined by “and” are separate entries in the source; they are usually repeats but may differ in a detail not shown here. Equal values may be shown once. Where a name gives a salt, the structure may show the parent alone. ± gives the standard deviation of the averaged measurements. In all, about 2,600 compounds were measured (“MBP+ mature oligodendrocyte number relative to DMSO vehicle control”: median about -0.34, highest 2% from about 13 on). Some of the results follow.
# Test system: jimpy (Plp1 jimpy) mouse iPSC-derived oligodendrocyte progenitor cells
# Assay: MBP+ mature oligodendrocyte number relative to DMSO vehicle control (SDs above negative control mean); higher = more surviving jimpy oligodendrocytes (rescue)
# Conditions: 10 µM; 3 days
# 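Note: 10 µM single dose with 3-day oligodendrocyte differentiation.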
row,Structure (SMILES),MBP+ mature oligodendrocyte number
1,CN1CCc2c(c3ccccc3n2Cc2ccc(C(=O)NO)cc2)C1 [Tubastatin A HCl],< -6.01
2,CN1CCc2c(c3ccccc3n2Cc2ccc(C(=O)NO)cc2)C1 [Tubastatin A],8.6
3,Cn1cnc2c(F)c(Nc3ccc(Br)cc3F)c(C(=O)NOCCO)cc21,-2.04
4,C#Cc1cccc(Nc2ncnc3cc(OCCOC)c(OCCO)cc23)c1,-4.7
5,Nc1nc(N)c(N=O)c(OCC2CCCCC2)n1,-5.17
6,NC(=O)c1cnccn1 [Pyrazinecarboxamide],0.931
7,NC(=O)c1cnccn1 [Pyrazinamide],-1.37
8,"CCCn1c(=O)c2[nH]c(C3CCCC3)nc2n(CCC)c1=O [8-Cyclopentyl-1,3-dipropylxanthine]",1.03
9,O=C(CCNNC(=O)c1ccncc1)NCc1ccccc1 [Nialamide],-0.519
10,N/C(=N\C(=O)c1nc(Cl)c(N)nc1N)NCc1ccccc1 [Benzamil hydrochloride],-0.943
11,CCC(=O)c1ccc2c(c1)N(CCCN(C)C)c1ccccc1S2 [Propionylpromazine hydrochloride],-3.71
12,CSc1nc2cc(Cl)c(Oc3cccc(Cl)c3Cl)cc2[nH]1 [Triclabendazole],4.29
13,Cc1nc2ccccn2c(=O)c1CCN1CCC(C(=O)c2ccc(F)cc2)CC1 [Pirenperone],-2.85
14,Nc1ccc(-c2ccc3ncc4ccc(=O)n(-c5cccc(C(F)(F)F)c5)c4c3c2)cn1 [Torin 2],< -6.01
15,CCCCCCCCCCCCCCCCn1cc[n+](Cc2ccccc2)c1C,-4.64
16,COc1cccc2c1C(=O)c1c(O)c3c(c(O)c1C2=O)C[C@@](O)(C(=O)CO)C[C@@H]3O[C@H]1C[C@H](N)[C@@H](O)[C@H](C)O1 [Epirubicin HCl],-6.26
17,CCCN(CCC)CCc1cccc2c1CC(=O)N2 [Ropinirole hydrochloride],0.217
18,CCCN(CCC)CCc1cccc2c1CC(=O)N2 [Ropinirole HCl],2.17
19,N=C(N)c1ccc(N)cc1 [4-Aminobenzamidine dihydrochloride],-1.65
20,Cc1[nH]c(=O)c(C#N)cc1-c1ccc2nccn2c1 [Olprinone hydrochloride],-1.18
21,NC(=O)c1cccc(-c2cccc(OC(=O)NC3CCCCC3)c2)c1,3.36
22,CC(=O)O[C@H]1C(=O)[C@@]2(C)[C@H]([C@H](OC(=O)c3ccccc3)[C@]3(O)C[C@H](OC(=O)[C@H](O)[C@@H](NC(=O)c4ccccc4)c4ccccc4)C(C)=C1C3(C)C)[C@]1(OC(C)=O)CO[C@@H]1C[C@@H]2O [Paclitaxel],-4.69
23,OCCn1cc(-c2cnc3nnn(Cc4ccc5ncccc5c4)c3n2)cn1,3.69
24,OC1(c2ccc(Cl)cc2)CCN(Cc2c[nH]c3ccccc23)CC1,-3.66
25,Cc1ncc([N+](=O)[O-])n1CC(C)O (centres undefined) [Secnidazole],0.395
26,COc1ccc2cc([C@H](C)C(=O)O)ccc2c1 [(-)-Naproxen sodium],-0.323
27,COc1ccc2cc([C@H](C)C(=O)O)ccc2c1 [Naproxen],-1.19

row,Structure (SMILES),MBP+ mature oligodendrocyte number
1,N#Cc1cc(CN2CCC(Nc3ncnc4sc(Cl)cc34)CC2)ccc1F,-0.326
2,C[C@]12CCC(=O)C=C1[C@@H]1C[C@@H]1[C@H]1[C@@H]3[C@@H]4C[C@@H]4[C@@]4(CCC(=O)O4)[C@@]3(C)CC[C@@H]12 [Drospirenone],5.69
3,Nc1cc(N2CCCCC2)nc(N)[n+]1[O-] [Minoxidil],-0.833
4,"Nc1ncnc2c1ncn2[C@@H]1O[C@H](COP(=O)(O)OP(=O)(O)OP(=O)(O)OP(=O)(O)OC[C@@H]2O[C@H](n3cnc4c(N)ncnc43)C(O)[C@@H]2O)[C@H](O)C1O (some centres undefined) [P1,P4-Di(adenosine-5')tetraphosphate triammonium]",0.764
5,CCOc1cc(C(=O)Nc2ccc(Cl)c(-c3nc4ccccc4[nH]3)c2)cc(OCC)c1OCC,-2.44
6,CC1(C)S[C@@H]2[C@H](NC(=O)[C@H](N)c3ccccc3)C(=O)N2[C@H]1C(=O)O [Ampicillin sodium],1.22
7,CC1(C)S[C@@H]2[C@H](NC(=O)[C@H](N)c3ccccc3)C(=O)N2[C@H]1C(=O)O [Ampicillin Trihydrate],2.18
8,C=C[C@H]1CN2CC[C@H]1C[C@H]2[C@H](O)c1ccnc2ccc(OC)cc12 [Quinine sulfate],-1.28
9,O=c1n(CCCN2CCN(c3cccc(Cl)c3)CC2)nc2ccccn12 [Trazodone HCl],1.01
10,O=c1n(CCCN2CCN(c3cccc(Cl)c3)CC2)nc2ccccn12 [Trazodone hydrochloride],-1.96
11,O=C(O)c1cc(=O)[nH]c(=O)[nH]1 [Orotic acid (6-Carboxyuracil)],-0.892
12,Cc1ccccc1C(C(=O)NC1CCCCC1)N(C(=O)Cn1ccnc1C)c1cccc(F)c1 (centres undefined),-5
13,Cc1ccc(C(=O)Nc2ccc(CN3CCN(C)CC3)c(C(F)(F)F)c2)cc1C#Cc1cnc2[nH]ncc2c1,-6.27
14,O=C(Nc1ccc(S(=O)(=O)Nc2ccccc2Cl)c(Cl)c1)c1ccccn1,3.45
15,Oc1ccc(-c2nc(-c3ccc(F)cc3)c(-c3ccncc3)[nH]2)cc1,-3.22 and -6.26
16,O=C(NC[C@H](O)CO)c1ccncc1Nc1ccc(I)cc1F,-6.26
17,CCOC(=O)c1cnc2c(cnn2CC)c1NN=C(C)C [Etazolate hydrochloride],1.08
18,C[C@@H]1C[C@H]2[C@@H]3CCC4=CC(=O)C=C[C@]4(C)[C@@]3(Cl)[C@@H](O)C[C@]2(C)[C@@]1(OC(=O)c1ccco1)C(=O)CCl [Mometasone furoate],4.93
19,CCOC(=O)[C@H](CCc1ccccc1)N[C@@H](C)C(=O)N1C(=O)N(C)C[C@H]1C(=O)O [Imidapril HCl],0.675
20,c1coc(CNc2ncnc3[nH]cnc23)c1 [Kinetin],0.451
21,O=C(O)[C@H](CC(=O)N1C[C@H]2CCCC[C@H]2C1)Cc1ccccc1 [Mitiglinide calcium],-1.54
22,C[C@]12CCC3=C4CCC(=O)C=C4CC[C@H]3[C@@H]1CC[C@@]2(O)CC#N [Dienogest],0.72
23,S=c1[nH]c(-c2ccccc2)cn1-c1ccccc1,2.54
24,O=c1oc2cc(O)ccc2s1 [Tioxolone],-1.84
25,COc1cc2ncnc(Nc3cccc(Cl)c3)c2cc1OC [Tyrphostin AG 1478],-1.85
26,COc1cc2ncnc(Nc3cccc(Cl)c3)c2cc1OC [AG-1478 (Tyrphostin AG-1478)],-3.71
27,COc1ccc(C2=N[C@@H](c3ccc(Cl)cc3)[C@@H](c3ccc(Cl)cc3)N2C(=O)N2CCNC(=O)C2)c(OC(C)C)c1 [Nutlin-3],< -6.7

row,Structure (SMILES),MBP+ mature oligodendrocyte number
1,CN/C(=N\CCSCc1nc[nH]c1C)NC#N [Cimetidine],-0.0874 ± 0.1
2,"c1ccc(C2CN3CCSC3=N2)cc1 (single isomer, unassigned; (-)) [(-)-Tetramisole hydrochloride]",-0.951
3,"c1ccc(C2CN3CCSC3=N2)cc1 (single isomer, unassigned; (-)) [(-)-Tetramisole]",0.793
4,O=C(O)c1cc2cc(Cc3cccnc3)ccc2o1 [Furegrelate sodium],1.97
5,NC(=O)c1ccc(I)c([N+](=O)[O-])c1 [Iniparib (BSI-201)],-3.64
6,O=C(O)c1cc(/N=N/c2ccc(S(=O)(=O)Nc3ccccn3)cc2)ccc1O [Sulfasalazine],-0.377
7,"O=Nc1ccc2oc(=O)ccc2c1 [6-Nitroso-1,2-benzopyrone]",-1.7
8,CCN1C[C@H](C)n2c(c(O)c3c(=O)n(Cc4ccc(F)c(Cl)c4)nc(C(=O)NC)c32)C1=O,2.17
9,CC(=O)c1c(C)c2cnc(Nc3ccc(N4CCNCC4)cn3)nc2n(C2CCCC2)c1=O,< -6.7
10,CC(C)(C)c1ccc(S(=O)(=O)/C=C/C#N)cc1,-1.61
11,C[C@@H](O[C@H]1OCCN(Cc2n[nH]c(=O)[nH]2)[C@H]1c1ccc(F)cc1)c1cc(C(F)(F)F)cc(C(F)(F)F)c1 [Aprepitant],-1.64
12,CCCCN(CCCC)CC(O)c1cc(Cl)cc2c1-c1ccc(Cl)cc1/C2=C/c1ccc(Cl)cc1 (centres undefined) [Lumefantrine],-1.02
13,Cc1cn(-c2cc(NC(=O)c3ccc(C)c(Nc4nccc(-c5cccnc5)n4)c3)cc(C(F)(F)F)c2)cn1 [Nilotinib (AMN-107)],< -6.7
14,NC(=O)c1ccc(-c2nc(-c3ccccn3)c(-c3ccc4c(c3)OCO4)[nH]2)cc1,-4.08
15,CCCNC(=O)Nc1ccc(Oc2ncnc3cc(OC)c(OC)cc23)cc1Cl,-2.99
16,"O=C(O)c1cc(=O)c2c(Cl)cc(Cl)cc2[nH]1 [5,7-Dichlorokynurenic acid]",-0.544
17,O=S(=O)(O)Oc1ccc(C(c2ccc(OS(=O)(=O)O)cc2)c2ccccn2)cc1 [Sodium Picosulfate],1.84
18,CCN(CC)CCOc1ccc(Nc2ncc3cc(-c4c(Cl)cccc4Cl)c(=O)n(C)c3n2)cc1,< -3.85
19,CCn1c(-c2nonc2N)nc2c(C#CC(C)(C)O)ncc(OC[C@H]3CCCNC3)c21,< -6.7
20,NC(=O)CC[C@H](N)C(=O)O [L-Glutamine],-1.01
21,Cc1cc2c(s1)Nc1ccccc1N=C2N1CCN(C)CC1 [Olanzapine],-1.86 ± 0.9
22,CN1C(=O)C(Cc2c[nH]c3ccccc23)NC1=S (centres undefined) [Necrostatin-1],1.71 ± 1.2
23,Cn1cc(/C=C2\C(=O)Nc3cccnc32)c2ccccc21,-3.63
24,Cc1ccc(NC(=O)C2(c3ccc4c(c3)OC(F)(F)O4)CC2)nc1-c1cccc(C(=O)O)c1 [VX-809 (Lumacaftor)],1.69
25,CC(C)OC(=O)C(C)(C)Oc1ccc(C(=O)c2ccc(Cl)cc2)cc1 [Fenofibrate],2.47 ± 0.94
